Experimental data: the antibiotic and cytotoxicity screens of Wong et al. (2023)
The other results are listed elsewhere or left out.

What follows are molecules tested on HepG2 (assay: cytotoxicity call (relative viability < 0.9)). Settings: 10 µM.

SMILES | cytotoxicity call
CC(C)NC(=O)Nc1ccc2c(c1)C(=O)N([C@@H](C)CO)C[C@H](C)[C@@H](CN(C)Cc1ccccc1)OCCCC[C@@H](C)O2 | inactive
C[C@@H]1CCCCO[C@@H](CN(C)C(=O)c2ccccc2)[C@@H](C)CN([C@H](C)CO)C(=O)c2cc(NS(=O)(=O)c3ccc(F)cc3)ccc2O1 | inactive
C[C@@H]1CN([C@@H](C)CO)C(=O)Cc2cc(NS(=O)(=O)c3ccc(Cl)cc3)ccc2O[C@H]1CN(C)S(C)(=O)=O | inactive
CN(C)CCN1[C@]2(CCN(C(=O)N3CCOCC3)C2)c2ccccc2S1(=O)=O | inactive
Cc1noc(C)c1S(=O)(=O)Nc1cccc2c1O[C@H](CN(C)C(=O)Nc1ccccc1)[C@H](C)CN([C@@H](C)CO)C2=O | inactive
COc1ccc2c3c([nH]c2c1)[C@@H](CO)N(C[C@]13CN(CC2CCOCC2)C1)C(=O)Nc1c(noc1C)C | inactive
COc1ccc(S(=O)(=O)Nc2ccc3c(c2)C(=O)N([C@H](C)CO)C[C@@H](C)[C@H](CN(C)Cc2ccc4c(c2)OCO4)OCCCC[C@@H](C)O3)cc1 | inactive
Cc1ccc(S(=O)(=O)N(C)C[C@H]2OCCCC[C@@H](C)Oc3ccc(NC(=O)Nc4ccccc4)cc3C(=O)N([C@H](C)CO)C[C@@H]2C)cc1 | inactive
CC(C)NC(=O)Nc1ccc2c(c1)CC(=O)N([C@H](C)CO)C[C@H](C)[C@@H](CN(C)S(=O)(=O)c1ccccc1)O2 | inactive
C[C@H](CO)N1C[C@H](C)[C@@H](CN(C)C(=O)Nc2ccccc2)Oc2cc(C#CC3(O)CCCC3)ccc2S1(=O)=O | inactive
